# The supplement of paper PMC5919970
# Counter-ions that a name gives are not always drawn. Whole data set: some 2,000 compounds, median “fractional viability relative to vehicle” near 0.92, cut for the lowest 2% near 0.11. This is one part of the list.
# System: TYKNU
# Test: fractional viability relative to vehicle; TYKNU is a high-grade serous ovarian cancer line; higher = less growth inhibition
# Details: 72 h, genotype: OPA1 knockout (sgOPA1 #2)
# Procedure, shortened: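 TYKNU control cells or lentiCRISPRv2 knockout derivatives were seeded at 500 cells per well into drug-stamped 384-well plates holding a ~2100-compound library at 2 or 10 μM, in duplicate. Cells were grown at 37 °C in 5% CO2 in RPMI 1640 with 10% FBS, and drug treatment lasted 72 h. Viability was read by Cell Titer Glo luminescence. Duplicate treatment wells were averaged and normalised to duplicate control wells from the same plate position.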
SMILES,fractional viability (2uM),fractional viability (10uM)
CN(C)CCNC(=O)c1cccn2c(=O)c3cc4ccccc4cc3nc12,0.61,0.294
C[C@H]1[C@H](OC(=O)CCC(=O)O)O[C@@H]2O[C@@]3(C)CC[C@H]4[C@H](C)CC[C@@H]1[C@@]24OO3 [Artesunate],0.674,0.481
O=C1OC(CN2CCOCC2)CN1/N=C/c1ccc([N+](=O)[O-])o1 (configuration not stated) [Furaltadone HCl],1.2,1.16
Cc1ccc(-c2c(-c3nn(C)c4ncnc(N5CC[C@H](N6CCCCC6)C5)c34)cnn2C)cc1,0.983,1.09
Cc1cc(C)c(CNC(=O)c2cc(-c3ccc(N4CCN(C)CC4)nc3)cc3c2c(C)cn3C(C)C)c(=O)[nH]1,0.878,0.945
CC(C)(C(=O)NCC(F)(F)C(F)(F)F)C(=O)N[C@@H]1C(=O)Nc2ccccc2-c2ccccc21,0.939,1.01
CCc1cnn2c(NCc3ccc[n+]([O-])c3)cc(N3CCCC[C@H]3CCO)nc12,0.572,0.51
O=C1NC(=O)[C@@H](c2cn3c4c(cccc24)CCC3)[C@@H]1c1c[nH]c2ccccc12 [Tivantinib (ARQ 197)],0.5,0.495
C[C@H]1Oc2cc(cnc2N)-c2c(nn(C)c2C#N)CN(C)C(=O)c2ccc(F)cc21,0.778,0.632
C[C@@]1(c2cc(-c3cncnc3)c(F)cc2F)CCSC(N)=N1,1.12,0.948
O=C(O)C(S)=Cc1c[nH]c2ccc(F)cc12,0.79,0.825
O=C(/C=C/C=C/c1ccc2c(c1)OCO2)N1CCCCC1 [Piperine],1.1,1.13
O=c1c2ccccc2nc2n1CCc1c-2[nH]c2ccccc12 [Rutaecarpine],1.44,1.13
CCC(=O)OCC(=O)[C@@]1(OC(=O)CC)[C@@H](C)C[C@H]2[C@@H]3CCC4=CC(=O)C=C[C@]4(C)[C@@]3(Cl)[C@@H](O)C[C@@]21C [Beclomethasone dipropionate],1.06,0.897
Cc1cc(C)nc(SCC(=O)Nc2ncc(Cc3cccc4ccccc34)s2)n1,0.904,0.931
COc1ccccc1N1CCN(CCCNc2cc(=O)n(C)c(=O)n2C)CC1 [Urapidil HCl],1.07,1.16
O=C(Nc1cccc(Nc2ncc(Br)c(NCCc3cnc[nH]3)n2)c1)N1CCCC1,1.05,0.982
COc1nc(N)nc2c1ncn2[C@@H]1O[C@H](CO)[C@@H](O)[C@@H]1O [Nelarabine],1.11,1.03
CN(C)CCCn1cc(C2=C(c3c[nH]c4ccccc34)C(=O)NC2=O)c2ccccc21,0.898,0.766
CC(=O)Oc1cc2c(s1)CCN(C(C(=O)C1CC1)c1ccccc1F)C2 (configuration not stated) [Prasugrel],1.03,0.983
Cn1cnc([N+](=O)[O-])c1Sc1ncnc2[nH]cnc12 [Azathioprine],1.18,1.48
CC(C)C(=O)Nc1ccc([N+](=O)[O-])c(C(F)(F)F)c1 [Flutamide],0.974,0.977
CC1(C)CCC2=C(O1)c1ccccc1C(=O)C2=O [Beta-Lapachone],0.202,0.0483

SMILES,fractional viability (2uM),fractional viability (10uM)
CC(=O)OCC[N+](C)(C)C [Acetylcholine Chloride],0.913,0.867
OCCN1C[C@H](O)[C@@H](O)[C@H](O)[C@H]1CO [Miglitol],1.32,0.92
S=C(NCc1ccc2c(c1)OCO2)N1CCN(c2ncnc3c2oc2ccccc23)CC1 [Amuvatinib (MP-470)],1.06,1.09
C[C@H](CCC(=O)O)[C@H]1CC[C@H]2[C@@H]3CC[C@@H]4C[C@H](O)CC[C@]4(C)[C@H]3CC[C@]12C [Lithocholic acid],1.11,0.905
CC(=O)SCC(Cc1ccccc1)C(=O)NCC(=O)OCc1ccccc1 (configuration not stated) [Racecadotril],1.12,0.988
COC(=O)C1=C(C)NC(C)=C(C(=O)OC(C)C)C1c1cccc2nonc12 (configuration not stated) [Isradipine],1.17,0.858
Cn1c(Nc2ccc(C(F)(F)F)cc2)nc2cc(Oc3ccnc(-c4ncc(C(F)(F)F)[nH]4)c3)ccc21,0.581,0.447
CCOc1cc(C(C)(C)C)ccc1C1=N[C@@](C)(c2ccc(Cl)cc2)[C@@](C)(c2ccc(Cl)cc2)N1C(=O)N1CCN(CCCS(C)(=O)=O)CC1,0.49,0.469
O=C(O)CCCC[C@@H]1SC[C@@H]2NC(=O)N[C@@H]21 [Biotin (Vitamin B7)],1.03,1.04
CCOC(=O)Nc1ccc(NCc2ccc(F)cc2)nc1N [Flupirtine maleate],1.34,1.13
O=C(/C=C/N1C[C@H]2C[C@@H]1CN2c1ccccn1)c1ccccc1O,0.994,0.926
O=c1[nH]cnc2c1ncn2[C@H]1CC[C@@H](CO)O1 [Didanosine],1.08,0.935
CN(C/C=C/C#CC(C)(C)C)Cc1cccc2ccccc12 [Terbinafine],1.12,1.03
CN(C/C=C/C#CC(C)(C)C)Cc1cccc2ccccc12 [Terbinafine HCl],0.92,0.811
Fc1ccc([C@@H]2CCNC[C@H]2COc2ccc3c(c2)OCO3)cc1 [Paroxetine HCl],0.883,0.439
Nc1nc(O)c2ncn(CCC(CO)CO)c2n1 [Penciclovir],1.22,0.916
C[C@H]1COc2c(N3CCN(C)CC3)c(F)cc3c(=O)c(C(=O)O)cn1c23 [Levofloxacin],1.11,1.06
NC(CO)C(=O)NNCc1ccc(O)c(O)c1O (configuration not stated) [Benserazide HCl],1.12,0.97
Nc1nc(Nc2ccc3c(c2)CCC(N2CCCC2)CC3)nn1-c1cc2c(nn1)-c1ccccc1CCC2 (configuration not stated),0.566,0.0864
CCCC(=O)OCOC(=O)C1=C(C)NC(C)=C(C(=O)OC)C1c1cccc(Cl)c1Cl (configuration not stated) [Clevidipine Butyrate],1.03,1.08
CCOC(=O)[C@H](CCc1ccccc1)N[C@@H](C)C(=O)N1Cc2cc(OC)c(OC)cc2C[C@H]1C(=O)O [Moexipril HCl],1.04,1.02
O=c1[nH]cnc2[nH]ncc12 [Allopurinol Sodium],1.13,1.02
CN1CCN(C2CCN(C(=O)Nc3cc(Oc4ccc(NC(=O)C5(C(=O)Nc6ccc(F)cc6)CC5)c(F)c4)ccn3)CC2)CC1 [Golvatinib (E7050)],0.92,0.485
